# In article PMC12136788:
# The list shows a part of the results.
# T1: UNK ZnF1-3 (human, UniProt Q9C0B0 31-174)
# T1 sequence: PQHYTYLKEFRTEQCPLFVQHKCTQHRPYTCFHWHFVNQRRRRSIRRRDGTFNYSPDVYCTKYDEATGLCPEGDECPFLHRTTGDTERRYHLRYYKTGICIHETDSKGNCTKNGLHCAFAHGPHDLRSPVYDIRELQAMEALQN
# B1: 75493018_75493138_318_CDS_ENSMUSG00000017776_ENSMUST00000017920|mouse|control|control (ssRNA)
# RNA: GGGAGUUCUACAGUCCGACGAUCCACUGGAGGGCGCGGGCCGCUGCUGUUGAUGAUGUAGUGGGAGACGCGCGAGUUUUCGGAGACGCUAAGCACAUAGUCCCCGGGGCUGGUGCUCGAGUCCCGCACCAGGAACACCCCGUGCAACAGAGGAUUGAGCAUCA
# B2: chr7:11082375:11082376:+_ENSG00000106443_ENST00000423760|hu_hu|FALSE|FALSE (ssRNA)
# RNA: GGGAGUUCUACAGUCCGACGAUCUUUUUGGUCUUUCUUGGCAUCCUUGUAAGAGGAGGAUCCAGACAUCCAAGAUGGUAAUGUAGUUUACAGGUAUCACACAAUAAAAGAAGAUGCUGAUCAUGGUUCUUCUUACAAAUCCCACAACAGAGGAUUGAGCAUCA
# B3: chr19:47223328:47223329:-_ENSG00000090372_ENST00000263280|hu_hu|motif|central (ssRNA)
# RNA: GGGAGUUCUACAGUCCGACGAUCAGCAGGAGCUCAAGGGGAGAACCUGGCACCUUCUGGAGUCUUGGAAAAACUGAUCCCGGAAGACACCCGGCCCUGGCUGUGCUGCCCUCUGGAAAGCAGCUCUGAUACCAGGAGCGGCUGCAACAGAGGAUUGAGCAUCA
# B4: chr1:39494447:39494448:+_ENSG00000168653_ENST00000372967|hu_mus|hu_hu_hu_mus_False|38_68 (ssRNA)
# RNA: GGGAGUUCUACAGUCCGACGAUCGCACCGAGCGGCGUUCUUAUAGGGCUGUUCUGCGCUUAGGAACGUCAACCAUCGGUCCAGGCUGAUGCCCAGCCUUUUCUGGAUGUCAAGGAAAGGCAUGGCUCUGCAGUGCCCUUGUCACAACAGAGGAUUGAGCAUCA
# B5: chr1:224585847:224585848:-_ENSG00000162923_ENST00000295024|hu_hu|FALSE|FALSE (ssRNA)
# RNA: GGGAGUUCUACAGUCCGACGAUCUCCAAAACAUGAAUGAAUUGUAUAAAACCCUUGUGUAACACCUUGAUACUUUCUUACUAAAACUCUGUCUUGCAAGUCCCAUAAAUGAACUCCCUGAGUUGCUACAUUUAACAAAGCUAACAACAGAGGAUUGAGCAUCA
# B6: 97543011_97543131_3568_3pUTR_ENSMUSG00000038437_ENSMUST00000044730|mouse|control|control (ssRNA)
# RNA: GGGAGUUCUACAGUCCGACGAUCCAGGCUAGGAGCCUGUCCUCCCGACCCUCUGAAGCAGCCAGUGCAGUGAGGGGUGGGCCAGGUGAAGGGCUCCCUCCAGUCUCUCUCCUCCAUGUGCACCUGGAACGCCAGGCAUGCACUCAACAGAGGAUUGAGCAUCA
# B7: 67432010_67432130_1493_CDS_ENSMUSG00000022048_ENSMUST00000022629|mouse|control|control (ssRNA)
# RNA: GGGAGUUCUACAGUCCGACGAUCGAUGACCAAGUCAGCAUCAGAUCCCACCGAGAUGCGACCUUUCCGGGGGUAAAGGUUGAAGACUUUGGCUGCGUUGGUGCUGGUCACAGCCACAAACUGAUUCUCAUCCAUCUUCCCAGUCAACAGAGGAUUGAGCAUCA
# B8: 112352971_112356265_2139_CDS_ENSG00000108055_ENST00000361804|human|control|control (ssRNA)
# RNA: GGGAGUUCUACAGUCCGACGAUCUUCACCUAGUUCUUCUUCUGCUUUUCUAACAUCUUUUUGCAAUUCAAGUCGAGACUUCCUUGUGUCAUAAUAACCCCCAGUUAGAGCACCCCGAUGGCUGACUUGGUCACCUUCCAAAGUCAACAGAGGAUUGAGCAUCA
# B9: chr4:115894766:115894767:+_ENSMUSG00000028698_ENSMUST00000030464|mus_hu|mus_mus_mus_hu_True|28_98 (ssRNA)
# RNA: GGGAGUUCUACAGUCCGACGAUCUUCCACACGGAAAGUACUUGGGGGUUUUCCAACGGCCAGUACCAGUCCGGCCAAACUACCCGAACAGGGUCCUCCCCCUCUCUUCUCUCCUCCACAACAAAAUGCCCCCGAACUUUCAAGCAACAGAGGAUUGAGCAUCA
# B10: chr7:151048522:151048523:+_ENSG00000013374_ENST00000566856|hu_mus|hu_hu_hu_mus_True|8_58 (ssRNA)
# RNA: GGGAGUUCUACAGUCCGACGAUCCUGUUUCUUAUUUAUUACGAUCUUGAUGUAAUUUUCUUGAAAUCCGAAAGUUUCAGCUAUUUUACACCUCAGGUCUCUACCAGUGACAUGCAAGCGGGUCUCCAACAAGUUUUUCUUAUCCAACAGAGGAUUGAGCAUCA
# B11: chr13:55314627:55314628:+_ENSMUSG00000021488_ENSMUST00000099490|mus_mus|motif|central (ssRNA)
# RNA: GGGAGUUCUACAGUCCGACGAUCCUCAGAAAAAUUGGAUUGACCAUUACCGAAAGGGCUGUCCUUGUCUUCGGAGGCAUCGGAAUUCACCGGAUUAGAAAAGGACAGCAGACAAUUUCUUCUAGAUAAUUCACAAGUCCGAUCCAACAGAGGAUUGAGCAUCA
# B12: 39978172_39979131_505_5pUTR_ENSG00000121892_ENST00000303538|human|control|control (ssRNA)
# RNA: GGGAGUUCUACAGUCCGACGAUCGCUUGGGCUGCGCGGUGAAGUCCAUCCUGGGGGACAACUUUUGGUUCACAGUCCUCUACCGGCCUCUCCUCCUCAUGCGGGCGGAAGGUGCAUCGAGCGCCCGGGCCUCUGUCAGGUGGUCAACAGAGGAUUGAGCAUCA
# B13: chr2:217001844:217001845:+_ENSG00000079246_ENST00000392132|hu_hu|hu_hu_hu_mus_False|28_58 (ssRNA)
# RNA: GGGAGUUCUACAGUCCGACGAUCACCAACUUGAGGAUUAGAUCUUUUGUCAUAAGCAUAUCGGACGAUGGCGACCAUGUCUAAGUCAUCCAAAGCAUGAACGAGAGAGGAAAGUGCAACAGCUGCCGCCUCAUCAUCCUUUGCCAACAGAGGAUUGAGCAUCA
# B14: chr2:65315752:65315753:-_ENSG00000138069_ENST00000409751|hu_mus|FALSE|FALSE (ssRNA)
# RNA: GGGAGUUCUACAGUCCGACGAUCACCAGCUGUAGCUCCAGGACCCAUUCGCUUUUUAAUCUCAGCUGCCAUCGUCAUGAAAGACUGUUCUACAUUCGUUGCGUUCUUAGCACUGGUUUCCAAAAAUGGAAUUCCAAGGGAAUCCAACAGAGGAUUGAGCAUCA
# B15: 10882734_10882854_1689_CDS_ENSMUSG00000090112_ENSMUST00000044053|mouse|control|control (ssRNA)
# RNA: GGGAGUUCUACAGUCCGACGAUCUUUUGUUUUAUCAAAUACAUCUUCUUUGUAAUUCUUCCCCAGUGUAAAAGUCCCAGAGAAACCAUGGCCUUUGAUCUGUUUCACAAGACCUUCAAAGAUUAAACAUUUCAACAUCCGCUUCAACAGAGGAUUGAGCAUCA
# B16: 8980754_8980874_117_5pUTR_ENSMUSG00000066643_ENSMUST00000085745|mouse|control|control (ssRNA)
# RNA: GGGAGUUCUACAGUCCGACGAUCAUCGGAGAAGCUCCCGUCGCCUGGCAACCACCGCCGCCCAGUCGCAUCCGGGGCGCUUAGAGAACUUCCGGCGUGGCCUCCCGCCCCGUGUUGGUCGUCGUGCGCCUGCGCGGGCGAUGGCAACAGAGGAUUGAGCAUCA
# B17: chr5:6374528:6374529:-_ENSG00000133398_ENST00000255764|hu_hu|motif|central (ssRNA)
# RNA: GGGAGUUCUACAGUCCGACGAUCAGCUAGAGCCCUCUCCAGGCACUCUUUGGUGUAGAGCUGGGGAUUUCGACCUUGAUCGGUAUAUUCAAAAACUUCUAACGGUACAGUAAUAUCAUGAAGCUGCUGUCUGCACUUGUCAAUCAACAGAGGAUUGAGCAUCA
# B18: chr14:31998760:31998761:-_ENSMUSG00000021910_ENSMUST00000163846|mus_mus|FALSE|FALSE (ssRNA)
# RNA: GGGAGUUCUACAGUCCGACGAUCUGCAGGCAGAAUGGCCACAUGAAGGACACCCCAAAGCACAAGACAGGUACAGACACUAUGGAGCUGGGAAGGCUUUCCAGCUCUGGAGUCACAAAAGGAAAAACAGCUUUUUGUCGUCUCCAACAGAGGAUUGAGCAUCA
# B19: chr9:120864499:120864500:+_ENSMUSG00000006932_ENSMUST00000007130|mus_mus|FALSE|FALSE (ssRNA)
# RNA: GGGAGUUCUACAGUCCGACGAUCGUAAUUAUUGCAAGUGAGGUUAGAGAGAAUUCCAGCUGCACAGGUGACCACAUUUAUAUCAUCGGAACCCAGAAGCUGCACUAGAGUCCCAAGGAGGCCUUCCAUCCCUUCCUGCUUAGUCAACAGAGGAUUGAGCAUCA
# B20: chr16:23446027:23446028:-_ENSG00000168434_ENST00000307149|hu_mus|FALSE|FALSE (ssRNA)
# RNA: GGGAGUUCUACAGUCCGACGAUCGUAGUAUGCAAGGAGCUGGGGCAUCCGGUCGAUUUCAGUAAACACCUUCACAAACACUUUAGACUGAUCCACAGACUGAGAGGUGAACGAUGCUACGAUCUGGGGGCUGGCCAGGGCCUCCAACAGAGGAUUGAGCAUCA
# B21: chr13:47345604:47345605:-_ENSG00000139684_ENST00000378720|perfect_dup|FALSE|FALSE (ssRNA)
# RNA: GGGAGUUCUACAGUCCGACGAUCCAGGUACUUAGCAUGGUGUCUGAUGUGGUCAGCGAUGAAAGUUGCAAUGAAGUAGUAGCUAUGAUCAUAACCCUCUUGUAGUCUAAACACAACAGGGAUUUUCUUCUCUGUGCAGGCAGCCAACAGAGGAUUGAGCAUCA
# B22: chr19:55172109:55172110:-_ENSMUSG00000024978_ENSMUST00000061856|mus_mus|motif|central (ssRNA)
# RNA: GGGAGUUCUACAGUCCGACGAUCGUGUGUUUACAUCGGCCAAGGCUGUAUUCCGAUGAACUGGGCAGAUAAGAAACGUCGGUUGUGCCAACUGUCACUGAAGACUCCUCCAUGGCAGAACGUGCAAGUCCCAAACCAUGUGCUCAACAGAGGAUUGAGCAUCA
# Target: T1, UNK ZnF1-3
# Assay: nsRBNS (natural sequence RNA bind-n-seq); RBNS binding buffer (assumed for nsRBNS): 25 mM Tris pH 7.5, 150 mM KCl, 3 mM MgCl2, 0.01% Triton X-100, 500 ug/ml BSA, 20 U/ml SUPERase-In, 4 C; UNK is unkempt and MSI1 is Musashi-1; names of the RNAs are library labels; protein concentration not given here; high values mean tight binding
row,Binder,binding signal
1,B1,0.961 enrichment R
2,B2,1.56 enrichment R
3,B3,0.897 enrichment R
4,B4,0.5 enrichment R
5,B5,1.07 enrichment R
6,B6,0.556 enrichment R
7,B7,1.12 enrichment R
8,B8,0.804 enrichment R
9,B9,1.33 enrichment R
10,B10,0.682 enrichment R
11,B11,0.904 enrichment R
12,B12,0.673 enrichment R
13,B13,1.64 enrichment R
14,B14,0.963 enrichment R
15,B15,0.887 enrichment R
16,B16,0.425 enrichment R
17,B17,1.08 enrichment R
18,B18,1.35 enrichment R
19,B19,1.49 enrichment R
20,B20,1.17 enrichment R
21,B21,1.16 enrichment R
22,B22,0.919 enrichment R
